In all, about 33,000 sequences were measured (“E-score (-0.5 to 0.5)”: median about -0.013, highest 2% from about 0.3 on). This is one part of the list.
target: T1, Msn1 (UniProt P22148); test: PBM E-score (8-mer binding enrichment) (E-score (-0.5 to 0.5)); higher = stronger / more preferred TF binding; most listed sequences are background and not binding sites; details: protein concentration: 200 nM; construct: GST-full length
T1 sequence: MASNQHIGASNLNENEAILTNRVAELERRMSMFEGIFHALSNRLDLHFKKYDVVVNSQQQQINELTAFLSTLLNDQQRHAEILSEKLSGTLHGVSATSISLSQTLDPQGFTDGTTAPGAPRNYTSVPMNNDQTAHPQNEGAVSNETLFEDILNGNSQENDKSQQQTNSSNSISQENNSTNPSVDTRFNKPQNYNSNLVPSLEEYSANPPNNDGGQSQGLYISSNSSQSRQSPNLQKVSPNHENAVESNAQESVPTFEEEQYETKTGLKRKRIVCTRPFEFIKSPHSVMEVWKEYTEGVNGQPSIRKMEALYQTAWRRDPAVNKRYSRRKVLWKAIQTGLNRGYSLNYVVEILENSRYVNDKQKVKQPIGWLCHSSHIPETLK
Outline: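 Full-length yeast transcription factors or their DNA-binding domains, GST-tagged and expressed with PURExpress, were applied at about 100-200 nM to universal all-10-mer Agilent arrays. These arrays had been made double-stranded by primer extension on fresh or once-stripped slides. Detection used fluorescent anti-GST, normalisation used masliner, and E-scores for ungapped eight-base words pooled with reverse complements came from the Universal PBM Analysis Suite.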

Sequence	PBM E-score
GATGATAA	0.0631
ATTCAAGG	-0.0593
AACTGAGA	0.0195
CACAAGCA	-0.0283
GGGCAACA	-0.0223
ACCAGCGT	-0.0578
CCCAATCG	-0.0543
AAAAGGTG	-0.144
ATACTAGG	0.0366
AAGGGCCC	-0.269
ATCACGCG	0.148
GAATGGCA	0.0355
CAGGAGGA	-0.103
ATCTCGAC	0.0583
CGCAGATA	0.0558
ACGAGCGA	0.0188
GACTACAA	-0.011
ACAAAAAC	0.319
GAACATAC	0.193
GGCAACAC	-0.0261
AGGCAGTA	-0.091
TAACGAAA	0.194
TCCGTACA	0.214
GTATCTAA	0.211
ATAATCGG	0.185

Sequence	PBM E-score
GCGGAAAC	-0.117
CCTTGTTA	-0.0123
ATACCATC	-0.00044
ATCTGATG	0.00794
AGTCGTTA	-0.128
CGTCCCCC	-0.436
ACGGTGTA	0.0353
GCGCACAA	0.0735
AAGAATAT	-0.00205
CTAGTTGC	-0.0643
ACTCCTCG	-0.00289
ACAGTGCG	-0.181
GAGCGATA	0.0782
GTGCGCCA	-0.195
TGGCTAAA	0.102
GTAAAAAA	0.178
TGTCATAA	0.397
GCGACTCC	-0.182
ATTCCTAA	0.0942
CTCTGCAA	-0.0609
AAACGAAG	0.00996
CGACGTTC	-0.281
GATCAAAA	0.133
ATAAGGCC	-0.0554
AGATGGGA	-0.126

Sequence	PBM E-score
AGTCGATA	-0.0618
AGCAATGC	-0.0793
AGACAGAT	0.187
AACTCTTG	0.0893
AACACGGC	-0.14
AGTCTGGG	-0.183
CGTCTCTC	0.0263
ACCGGTTG	-0.0618
ACTCTTCA	-0.0242
CACTAATG	-0.0828
ACCAGTCT	-0.194
ACTCCCCC	-0.294
ACTTGAAC	0.101
AAGTATAC	0.112
GTGACGCA	0.0454
ACGTCTGG	0.154
ATTATGTA	0.149
ATCTTAGA	0.179
GTCGAATA	0.0273
CATAATGG	-0.169
CACAGCGA	0.12
CCGTTACC	-0.0239
AGACGGAG	-0.201
ATACGCTA	-0.139
GATATGAA	0.13

Sequence	PBM E-score
GCGTCGCC	-0.0704
CAATTGCC	-0.0132
CACCGCCA	-0.0657
CTCCAACC	-0.00536
ATGCCCAC	0.0757
CGGTTCTA	0.0533
ACAAATCA	0.266
AGAGATGG	0.00215
GTGATAAC	0.0279
TAGAGAGA	-0.0195
CCCCAGGG	-0.401
GGATCACA	0.0719
GAACGATA	-0.135
ACATGAGC	-0.0323
AGTAACAG	0.0866
GACGAATC	0.161
AAGCCCGG	0.163
CGCTCATA	-0.217
AGATACCC	0.0501
AAACCCTA	-0.0892
CAGACCCC	-0.258
ACCTCTGG	-0.217
CTCGAAAA	0.0117
CAAAAACG	0.121
CAACCAAG	0.0196

Sequence	PBM E-score
CGGGGGCA	-0.318
CAACGACA	0.307
CCTTAGTA	0.0209
CAGACCTA	-0.0743
AACTCCGC	-0.259
ATCATGCG	-0.0522
CGCAAGGC	-0.225
ATCCTACA	-0.189
CGGAGCAC	0.0322
ATTCAAAG	-0.0143
ACGGGGAG	-0.165
CGTAACAG	-0.00261
CGCGGGTC	0.0184
CACCGAAG	0.117
ATGATCCC	-0.0156
GATAAATA	0.165
TGGTTGAA	-0.0117
GGCTAAAC	-0.052
GGGCGCAA	-0.0566
GGATTATA	0.109
AACGTCAC	-0.0115
AGTTCGAG	0.0807
AAATTCAC	-0.0266
CTGATGTA	0.112
TCAATGCA	-0.176

Sequence	PBM E-score
AGCGAATA	0.0725
AAATGTGT	0.292
AGACGTCT	-0.0109
AACTGTAC	-0.121
GTGAATCA	-0.074
GTTATACA	0.175
CCGGCCCC	-0.378
ACCTTGAG	-0.0236
ACCAGGGT	-0.268
CAGAATGG	0.0269
GGGTAAAC	0.00687
GAACAGTA	0.0356
GGCACTTA	-0.142
AAATAGGG	-0.0637
AGTCTTAG	0.0186
CAGTTAGG	-0.00482
GGTACCGA	-0.172
CACAGCTG	-0.0312
ATTGTACC	0.237
CTCACGGC	-0.173
TACGCCGA	-0.0266
AAGCGGGG	-0.1
CGTTTAAG	-0.0492
ACGCAGGG	-0.0636
AACCATCG	0.16

Sequence	PBM E-score
AGCTCAGC	-0.188
GAAAAACC	0.0972
AAATTTAC	0.233
CTCGGTGC	-0.156
CGCACTGC	-0.0396
ATAACCCC	-0.105
CCGTGTAC	0.296
CAGTACTA	0.138
ATCGGGGC	-0.227
ACCAAGGA	0.0154
ACTCTCCC	-0.0866
AATAGACT	-0.0241
ATCGCACG	-0.0851
GAGCGATC	-0.11
TCGGCAAA	-0.0144
AAGCGCGA	-0.00175
GACATAGC	0.295
CTTCCATC	-0.174
ATCAGTTG	0.0796
GATCTTGC	-0.0598
CGACCAGA	-0.0555
CATCCCCC	-0.348

Reference: the supplement of paper PMC3334620
